Measured values from ChEMBL document CHEMBL4888484, “Replenishing the malaria drug discovery pipeline: Screening and hit evaluation of the MMV Hit Generation Library 1 (HGL1) against asexual blood stage Plasmodium falciparum ,using a nano luciferase reporter read-out” (2022).
Among all 150,000 compounds or so, about 540 (0.36%) showed an effect of 50% or more. The list shows a part of the results.

test system: Plasmodium falciparum; experiment: Primary screen in NF54 nanoGlo assay, in single point, at 2uM, 72h; a lower Z score goes with more inhibition; assay type: functional, Erythrocyte; conditions: timepoint 72 hour

SMILES | % Inhibition [%] | Z score
O=C1CN(C(=O)Cc2noc3ccccc23)c2ccccc2N1 | -21 | 2.19
O=C(Nc1cnc(Oc2ccccc2)nc1)c1ccc(Br)o1 | -7 | 1.4
CC(C)n1ncnc1-c1ccc(C(=O)NCCN2CCCC[C@@H]2CO)cc1 | -2 | 0.23
Cc1ccc(C)n1CC(=O)N1CCc2[nH]c3c(Br)cccc3c2C1 | -7 | 0.86
CCn1nccc1[C@@H]1CCCN1C(=O)Nc1cc(Cl)c(OC)cc1OC | 0 | 0.01
CN1CN(C[C@@H]2C[C@H]2c2ccccc2)CC1=O | -4 | 0.72
CC(=O)Nc1ccc(C(=O)N2[C@@H](C)CCC2(C)C)nc1 | 0 | -0.02
COc1ccc([C@@H]2C=C(c3ccccc3)N=C3NN=NN32)cc1 | -11 | 1.67
Cc1cc(C)nc(NC(=O)N(C)Cc2c(C)noc2C)c1 | 3 | -0.52
Cc1cccc(N(C)C(=O)c2ncoc2C2CCNCC2)c1 | -5 | 0.94
CCc1cc(NCCc2cccnc2)ncn1 | -8 | 1.2
Cc1nc(NCc2ccc(-c3noc(C)n3)cc2)c2cccnc2n1 | -6 | 0.88
O=C(c1ccc(S(=O)(=O)c2ccc(Br)cc2)o1)N(Cc1cccc(Cl)c1)[C@H]1CCS(=O)(=O)C1 | -7 | 0.94
COc1ccc(CN2CCc3oc(C)c(C(=O)N4CCCN(C)CC4)c3C2)cc1 | -11 | 1.05
CCCC(=O)N1CCCC(C(=O)N[C@@H]2CCCC[C@H]2NC(=O)c2ccc(OC)cc2)C1 (stereo partly specified) | -8 | 0.89
O=C(Cn1cccn1)NCc1cccnc1N1CCCCCCC1 | -24 | 2.12
Cc1cnc(NC(=O)c2cncc(F)c2)o1 | -2 | 0.28
COc1ccc2c(c1)[C@]1(CC2)NC(=O)N(Cc2nc(C)cs2)C1=O | 4 | -0.45
Cn1c(=O)[nH]c2ncc(-c3cccc(C(=O)NCC4(CO)COC4)c3)cc21 | 25 | -2.84
Cc1cc(C)cc(NC(=O)C2CCN(S(=O)(=O)c3cc4c(cc3C)NC(=O)CO4)CC2)c1 | -12 | 1.38
COc1nn(C)cc1NC(=O)[C@H]1C2CCC(CC2)[C@@H]1C(F)(F)F | -7 | 1.3
OC1(c2ccc(-c3ccc(F)cc3Cl)cc2)CCNCC1 | -4 | 0.34
CCOc1ccccc1C(=O)N1CCC[C@](c2nnnn2CCC(C)C)(N(C)C)C1 | -2 | 0.29
